# Out of some 310,000 compounds screened, about 2,200 (0.71%) showed an effect of 50% or more. Effects have a minus sign here. The list shows a part of the results.
# Target: human ether-à-go-go-related gene (hERG) potassium channel (human, UniProt Q12809)
# Test: primary screen, population patch clamp on CHO cells stably expressing hERG
# Chain of human ether-à-go-go-related gene (hERG) potassium channel (Q12809 whole entry, looked up): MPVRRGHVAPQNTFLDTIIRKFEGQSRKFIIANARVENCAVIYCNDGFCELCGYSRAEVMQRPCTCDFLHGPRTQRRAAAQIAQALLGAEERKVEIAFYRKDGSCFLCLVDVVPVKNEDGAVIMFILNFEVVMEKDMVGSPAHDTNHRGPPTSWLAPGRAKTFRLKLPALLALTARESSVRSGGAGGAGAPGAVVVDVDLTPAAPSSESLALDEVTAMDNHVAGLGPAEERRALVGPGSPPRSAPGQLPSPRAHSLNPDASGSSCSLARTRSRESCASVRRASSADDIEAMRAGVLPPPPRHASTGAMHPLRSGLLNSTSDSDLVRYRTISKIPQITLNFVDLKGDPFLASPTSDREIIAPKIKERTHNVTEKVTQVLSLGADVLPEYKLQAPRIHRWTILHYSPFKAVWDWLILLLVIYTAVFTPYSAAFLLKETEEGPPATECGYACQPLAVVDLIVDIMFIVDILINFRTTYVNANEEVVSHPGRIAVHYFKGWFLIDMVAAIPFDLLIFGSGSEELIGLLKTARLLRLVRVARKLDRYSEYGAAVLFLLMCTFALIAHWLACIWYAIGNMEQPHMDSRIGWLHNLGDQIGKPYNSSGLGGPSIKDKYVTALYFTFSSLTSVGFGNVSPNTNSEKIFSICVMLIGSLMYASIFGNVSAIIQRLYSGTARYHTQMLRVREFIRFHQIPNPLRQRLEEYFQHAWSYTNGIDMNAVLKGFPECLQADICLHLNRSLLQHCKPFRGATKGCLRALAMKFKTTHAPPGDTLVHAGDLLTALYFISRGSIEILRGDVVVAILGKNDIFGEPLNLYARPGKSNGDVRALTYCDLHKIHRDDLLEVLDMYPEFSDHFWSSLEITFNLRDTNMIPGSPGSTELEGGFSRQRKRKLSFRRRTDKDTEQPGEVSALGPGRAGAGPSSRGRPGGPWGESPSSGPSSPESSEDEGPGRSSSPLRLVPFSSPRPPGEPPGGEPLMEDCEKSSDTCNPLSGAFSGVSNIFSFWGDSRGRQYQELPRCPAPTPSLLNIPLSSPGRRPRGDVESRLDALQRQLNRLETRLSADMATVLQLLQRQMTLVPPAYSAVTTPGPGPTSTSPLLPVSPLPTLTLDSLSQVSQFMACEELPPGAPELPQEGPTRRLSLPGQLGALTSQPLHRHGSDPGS
row,SMILES,"hERG current change (%, negative = inhibition) at 1uM"
1,CC(C)N(C(=O)Cn1c(-c2cccnc2)ccc(C#N)c1=O)C(C)C,9.08%
2,COc1ccc(NC(=S)NNC(=O)c2ccccc2OC(F)F)cc1,-1.63%
3,O=C1C2C3C=CC(C3)C2C(=O)N1/N=C/c1cc(Br)cc([N+](=O)[O-])c1O (stereo not drawn),8.33%
4,CC1(C)CC(=O)c2sc(N3CCCCC3)nc2C1,13%
5,Cc1ccc(S(=O)(=O)N2CCN(C(=O)c3ccc(Cl)nc3)CC2)cc1,6.65%
6,Cc1ccc(SC2=C(C(=O)O)CCCC2)cc1,7.3%
7,CCSc1nnc(NC(=O)c2nn(C(C)C)c(=O)c3ccccc23)s1,-3.68%
8,COc1ccc(N(CC(=O)Nc2cc(OC)ccc2OC)S(=O)(=O)c2c(C)noc2C)cc1,5.69%
9,Cc1ccc(-c2csc3nc(C)n(-n4cccc4)c(=O)c23)o1,4.98%
10,CCCC(=O)N1CCN(c2nnc(-c3ccccc3)c3ccccc23)CC1,1.58%
11,C=CCn1c(CCCNC(=O)CCC)nc2ccccc21,6.24%
12,COC(=O)c1ccc(COc2ccc(/C=N/O)cc2)o1,9.76%
13,COc1cccc(-c2nc(CS(=O)CC(=O)NCCc3ccc(C)cc3)c(C)o2)c1 (stereo not drawn),10.8%
14,CCCCCN(C(=O)CCC(=O)OCC(=O)N(CC#N)c1ccccc1)c1c(N)n(CCCC)c(=O)[nH]c1=O,3.81%
15,Cc1ccc(OCCc2csc(N)n2)cc1,10.9%
16,COc1ccccc1-c1cc(C(=O)NC(C)C)no1,-7.94%
17,Cn1c(=O)cc(Cl)[nH]c1=O,10.9%
18,CCn1c(SCC(=O)Nc2nc3c(s2)CCCC3)nnc1-c1ccccc1,-1.1%
19,Cc1cccc(NC(=O)c2ccc(CN3CCN(Cc4ccccc4)CC3)cc2)c1,-40.4%
20,O=C(CCc1ccccc1)Nc1ccc2c(c1)OCO2,16.4%
21,Cc1ccc(CN(C)C(=O)COC(=O)CSc2cc(C)c3ccccc3n2)cc1,7.8%
22,CC1(C)Cc2ccccc2-c2nnc(SCC(=O)N3CCc4ccccc43)n21,10.9%
23,C=CCn1c(-c2oc3nc(-c4ccccc4)cc(-c4ccccc4)c3c2N)n[nH]c1=S,-3.13%

row,SMILES,"hERG current change (%, negative = inhibition) at 1uM"
1,COc1ccc(NC(=O)Cc2nnc(SCC(=O)NC3=NCCS3)n2C)cc1,2.98%
2,CCn1c(SCC(=O)NCc2ccco2)nnc1-c1c[nH]c2ccccc12,13.1%
3,C[N+]1(C)[C@@H]2CC[C@H]1CC(OC(=O)C(CO)c1ccccc1)C2.O=[N+]([O-])[O-] (stereo partly drawn),12.7%
4,CC12CCC(C/C1=N\N=C1\NC(=O)/C(=C\c3cccc(Br)c3)S1)C2(C)C (stereo not drawn),6.04%
5,Cc1cc(C)n(S(=O)(=O)/C=C/c2ccccc2)n1,7.16%
6,Cc1c(OCC(=O)N2CCC[C@@H]2C(=O)O)ccc2c3c(c(=O)oc12)CCC3,11.3%
7,COc1ccc(CN2CCN(C3CCSCC3)CC2CCO)c(C)c1C (stereo not drawn),-9%
8,Cc1ccc(-c2nnnn2-c2ccccc2C(=O)O)cc1,15.7%
9,CCCc1c(C(=O)Nc2ccc(N3CCOCC3)cc2)cnn1-c1ccccc1,7.07%
10,Cc1ccc(CSc2nc3ccccc3c(=O)[nH]2)cc1,3.74%
11,COc1ccc(N2CCN(C(=O)C(Cc3ccccc3)n3cccc3)CC2)cc1 (stereo not drawn),8.78%
12,O=C(CCC(=O)OCc1cccc([N+](=O)[O-])c1)Nc1ccccc1Cl,2.86%
13,CCOc1ccccc1NC(=O)CSc1ccc(-c2sc(C)nc2C)nn1,11.7%
14,Cc1cc(C(=O)N/N=C/C=C/c2ccccc2)c(C)o1,12%
15,CC(=O)N1CCN(Cc2nc3ccc(Cl)cc3n2CCO)CC1,15.9%
16,O=C(Nc1ccc(Cl)c(C(F)(F)F)c1)N1CCCC(O)C1 (stereo not drawn),12.5%
17,O=C(COC(=O)CCc1nc2ccccc2s1)Nc1ccc(S(=O)(=O)N2CCOCC2)cc1,8.92%
18,CNC[C@H](O)c1ccc(O)c(O)c1.O=C(O)C(O)C(O)C(=O)O,12.2%
19,COc1ccc(NS(=O)(=O)c2cc(NC(=O)/C=C/c3ccccc3OC)ccc2N2CCCCC2)cc1,15.5%
20,Oc1ccc[n+](CC(O)c2ccccc2)c1.[Br-] (stereo not drawn),9.33%
21,Cc1cc(OCC(=O)NCc2ccncc2)c2c3c(c(=O)oc2c1)CCC3,6.31%
22,Cc1ccccc1Nc1nnc(C)c(=O)n1N,3.3%

# From paper PMC4336329 (PLoS ONE, 2015)
